Values belong to the binder of their own block, whether it stands above or below them.
B4: human platelet glycoprotein Ib alpha (GPIb α) on human platelets (receptor)
chain: not shown
notes: whole, on cells; Native receptor on washed platelets or whole blood; also called GPIb alpha; hGPIb-α

Legend:
[1] = biological target: B4; test: transient tethers of VWF-A1-coated beads on surface-immobilized human platelets; shear stress 0.5 dyn cm-2; R2 0.94
Method: (§1) The duration of these interactions are measured by recording images from a Nikon X60 DIC objective (oil immersion) viewed at a frame rate of 235 fps (Speed Vision Technologies, San Diego, Calif.) and subjected to wall shear stresses (WSS) ranging from 0.5 to 3.0 dyn cm⁻². […] The force acting on the i tether bond was calculated from force balance equations and koff plotted as a function of these forces. […] Because these platelets cannot activate, the kinetics should be reflective of GPIb α in the resting state.

[2] = biological target: B4; test: transient tethers of VWF-A1-coated beads on surface-immobilized human platelets; shear stress 2.0 dyn cm-2; R2 0.95
Method: (§2) The force acting on the i tether bond was calculated from force balance equations and koff plotted as a function of these forces. […] Because these platelets cannot activate, the kinetics should be reflective of GPIb α in the resting state.
(§3) This antibody was made by immunizing Fischer 344 rats (3-4 months old) with recombinant WT protein. […] Spleens from animals with the highest antibody titers were harvested and splenocytes fused with Sp2/0 mouse myeloma cells (Kohler, et al., 1975).

[3] = biological target: B4; test: transient tethers of VWF-A1-coated beads on surface-immobilized human platelets; shear stress 3.0 dyn cm-2; R2 0.97
Method: as §2, §3

[4] = biological target: B4; test: transient tethers of VWF-A1-coated beads on immobilized platelets, WSS 1.5 dyn cm-2; platelets fixed in paraformaldehyde; R2 0.98
Method: as §1

[5] = biological target: B4; test: transient tethers of VWF-A1-coated beads on surface-immobilized human platelets in flow, distribution of interaction times; WSS 0.5 dyn cm-2; R2 0.98
Method: (§4) The duration of these interactions are measured by recording images from a Nikon X60 DIC objective (oil immersion) viewed at a frame rate of 235 fps (Speed Vision Technologies, San Diego, Calif.) and subjected to wall shear stresses (WSS) ranging from 0.5 to 3.0 dyn cm⁻². […] The force acting on the i tether bond was calculated from force balance equations and koff plotted as a function of these forces.

[6] = biological target: B4; test: transient tethers of VWF-A1-coated beads on surface-immobilized human platelets in flow, distribution of interaction times; WSS 1.0 dyn cm-2; R2 0.97
Method: as §4

[7] = biological target: B4; test: transient tethers of VWF-A1-coated beads on surface-immobilized human platelets in flow, distribution of interaction times; WSS 1.5 dyn cm-2; R2 0.96
Method: as §4

[8] = biological target: B4; test: transient tethers of VWF-A1-coated beads on immobilized platelets, WSS 1.5 dyn cm-2; unfixed platelets (treated with metabolic inhibitors); R2 0.98
Method: as §4

[9] = biological target: T1, murine platelet glycoprotein Ib alpha (GPIb α) on mouse platelets (mouse, UniProt O35930 17-734); test: murine platelets perfused over immobilized mutant VWF-A1, wall shear rate 800 s-1
T1 construct: whole, on cells; Native receptor on mouse platelets or whole blood; also called murine GPIb α; mGPIb-α
T1 sequence (looked up): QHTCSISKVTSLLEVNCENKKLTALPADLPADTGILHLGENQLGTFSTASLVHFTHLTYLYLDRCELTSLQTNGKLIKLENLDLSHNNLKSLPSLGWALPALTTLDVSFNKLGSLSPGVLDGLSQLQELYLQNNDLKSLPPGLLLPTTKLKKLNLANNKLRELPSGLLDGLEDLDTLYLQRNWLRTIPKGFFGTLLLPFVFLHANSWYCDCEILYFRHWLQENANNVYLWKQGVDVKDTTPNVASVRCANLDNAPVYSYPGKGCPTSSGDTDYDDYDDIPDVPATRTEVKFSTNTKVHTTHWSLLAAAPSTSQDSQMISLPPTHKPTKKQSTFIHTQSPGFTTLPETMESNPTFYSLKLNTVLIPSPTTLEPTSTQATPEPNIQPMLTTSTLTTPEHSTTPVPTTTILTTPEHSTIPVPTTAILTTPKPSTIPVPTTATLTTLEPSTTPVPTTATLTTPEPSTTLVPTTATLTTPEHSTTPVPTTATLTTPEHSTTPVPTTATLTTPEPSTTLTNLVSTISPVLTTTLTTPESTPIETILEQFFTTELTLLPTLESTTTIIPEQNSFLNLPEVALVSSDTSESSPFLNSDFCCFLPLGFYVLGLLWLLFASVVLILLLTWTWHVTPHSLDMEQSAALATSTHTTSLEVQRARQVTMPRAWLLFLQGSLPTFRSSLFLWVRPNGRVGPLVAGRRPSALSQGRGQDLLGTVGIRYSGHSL

[10] = biological target: B4; test: transient tethers of human VWF-A1-coated beads on surface-immobilized human platelets, wall shear stress 1 dyn cm-2; R2 0.97
Method: as §1

[11] = biological target: T2, mouse plasma VWF containing the majority of the human A1 domain (amino acids 1240P through 1481G of human VWF) (mouse VWF with human A1 domain, UniProt Q8CIZ8 764-2813, limits assumed); test: parallel-plate flow system: human platelets over surface-immobilized plasma VWF
T2 construct: Plasma VWF from homozygous VWF-HA1 mice; also called VWF-HA1; VWF HA1

[12] = biological target: T3, human plasma von Willebrand factor (VWF) (human, UniProt P04275 764-2813); test: human whole blood perfused 4 min over surface-immobilized plasma VWF, 1600 s-1
T3 construct: Plasma-derived multimeric VWF, purified or captured on polyclonal anti-VWF; also called human VWF; human plasma VWF
Method: (§5) Ex vivo platelet adhesion studies. Experiments were performed in a parallel-plate flow chamber as previously described (Offermanns, S., et al., 2006). […] Subsequently, the plate was washed and non-specific interactions blocked by the addition of TBS containing 3% BSA, pH 7.4 (1 hour, 37° C.). Human or murine plasma obtained from heparinized whole blood was added and the plates placed at 37° C. for an additional 2 hours. […] The number of platelets attached per unit area (0.07 mm²) and translocation velocities were determined by off-line analysis (Image-Pro Plus, Media Cybernetics). For GPIb α inhibition studies, the function-blocking mAb 6D1 (20 μg/ml) or mAb SZ2 (20 μg/ml; Beckman Coulter, Brea, Calif.) was added to anticoagulated human blood for 30 minutes prior to use. Experiments were performed in triplicate on two separate days. An ELISA was used to ensure equivalent coating concentration of plasma and recombinant proteins (Denis, C. et al., 1998).

[13] = biological target: B4; test: human whole blood perfused 4 min over surface-immobilized recombinant VWF-A1, 1600 s-1
Method: as §5

[14] = biological target: T1, murine platelet glycoprotein Ib alpha …; test: platelet adhesion under flow (summary of Example 3)
Method: as §5

B1: recombinant wild-type human VWF-A1 protein ([…]), Examples 1-2 (ligand)
chain: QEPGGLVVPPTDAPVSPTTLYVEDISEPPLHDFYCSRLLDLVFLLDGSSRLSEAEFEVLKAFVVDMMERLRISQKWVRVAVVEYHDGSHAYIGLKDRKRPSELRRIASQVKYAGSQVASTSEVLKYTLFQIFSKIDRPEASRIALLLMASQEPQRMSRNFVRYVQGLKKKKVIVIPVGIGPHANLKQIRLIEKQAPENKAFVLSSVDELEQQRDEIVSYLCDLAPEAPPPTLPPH
notes: Intrachain disulfide […]; also called WT human VWF-A1; H VWF-A1
- koff [1]: 5.1 s⁻¹
- koff [2]: 8.1 s⁻¹
- koff [3]: 9.6 s⁻¹
- koff [4]: 7.79 s⁻¹
- koff [5]: 4.92 s⁻¹
- koff [6]: 6.54 s⁻¹
- koff [7]: 7.35 s⁻¹
- koff [8]: 7.48 s⁻¹

Binder: B4
- binding result [11]: binds
- binding result [12]: binds

B5: recombinant wild-type human VWF-A1 domain protein (amino acid […]), Example 3 (ligand)
chain: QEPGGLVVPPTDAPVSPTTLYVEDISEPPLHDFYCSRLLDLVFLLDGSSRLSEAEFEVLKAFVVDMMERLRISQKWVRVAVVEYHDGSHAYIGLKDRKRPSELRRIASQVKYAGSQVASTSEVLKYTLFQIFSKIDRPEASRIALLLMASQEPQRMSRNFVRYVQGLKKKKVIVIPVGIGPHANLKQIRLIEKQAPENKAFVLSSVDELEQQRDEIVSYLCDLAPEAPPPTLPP
notes: Generated in bacteria, with a single disulfide […]; No tag is stated there; also called human rVWF-A1; WT human VWF-A1 protein
- binding result [13]: binds

Results, then the binder that gave them:

- binding result [9]: binds
B2: recombinant human VWF-A1 containing His1326Arg (1326H>R), Examples 1-2 (ligand)
chain: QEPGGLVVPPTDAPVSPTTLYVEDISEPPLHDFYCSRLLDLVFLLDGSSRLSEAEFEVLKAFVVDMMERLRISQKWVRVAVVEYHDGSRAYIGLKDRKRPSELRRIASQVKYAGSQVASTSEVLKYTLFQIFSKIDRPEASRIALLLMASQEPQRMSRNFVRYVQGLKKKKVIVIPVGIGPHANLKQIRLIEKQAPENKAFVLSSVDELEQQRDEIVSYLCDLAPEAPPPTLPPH
notes: The His tag is not described further

- koff [10]: 0.98 s⁻¹
B3: recombinant human VWF-A1 containing the type 2B mutation Ile1309Val (1309I>V) (ligand)
chain: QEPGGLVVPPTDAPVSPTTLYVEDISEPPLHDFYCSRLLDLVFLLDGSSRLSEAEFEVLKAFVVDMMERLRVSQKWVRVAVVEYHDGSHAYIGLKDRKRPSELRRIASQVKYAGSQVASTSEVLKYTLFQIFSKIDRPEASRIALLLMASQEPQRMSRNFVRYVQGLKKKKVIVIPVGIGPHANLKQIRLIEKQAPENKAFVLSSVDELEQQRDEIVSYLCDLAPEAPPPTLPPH
notes: also called type 2B mutation alone

- binding result [14]: binds
B6: recombinant human rVWF-A1 1326H>R ([…]), Example 3 (ligand)
chain: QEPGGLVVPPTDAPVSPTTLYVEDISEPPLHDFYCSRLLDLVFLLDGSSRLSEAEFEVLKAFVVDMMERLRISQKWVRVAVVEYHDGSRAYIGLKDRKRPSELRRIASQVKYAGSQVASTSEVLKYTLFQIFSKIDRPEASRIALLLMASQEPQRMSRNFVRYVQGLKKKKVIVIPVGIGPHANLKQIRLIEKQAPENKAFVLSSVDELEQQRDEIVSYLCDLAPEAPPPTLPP

Source: patent publication US20130347134A1 (published 2013)
